Measured values taken from PubChem BioAssay AID686979 (National Center for Advancing Translational Sciences (NCATS), 2013).
“And” between values parts separate entries of the source, which are not always exact repeats. Identical values can stand only once. Hit rate of the full screen: of about 420,000 compounds, about 50,000 (12%) were called active. The inconclusive results got no clear call from the source; some entries with a clear call stand among them for comparison. Calls follow the shape of the dose curve; as a rule, active = well fitted inhibition curve with a large enough effect; inconclusive = small, poorly fitted or top-dose-only effect; inactive = flat fitted curve, though single readings scatter. Potencies of inconclusive entries are doubtful fits and often do not repeat.

test: qHTS for Inhibitors of human tyrosyl-DNA phosphodiesterase 1 (TDP1): qHTS in cells in presence of CPT; conditions: chicken DT40 Tdp1-/-;hTDP1 cells + 20 nM CPT, ATP luminescence, 48 h; activity change, negative = growth inhibition: at 46.2 µM (top of the series) unless noted; also: nearly all actives have a fitted effect of over 55% in size
Outline: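 Chicken DT40 Tdp1-/- cells complemented with human TDP1, 400 cells/well, exposed to compounds plus 20 nM camptothecin for at least 48 h at 37 C; viability read as ATP content by CellTiter-Glo luminescence.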
% is scaled to controls: 0 for no effect and ±100 for the full control effect; potency is read from the fitted curve at half-maximal effect; tags tell the direction and shape of the fitted curve.

Q: For `COc1cc(NC(=O)CCc2c(C)nn(-c3ccc4nnc(C)n4n3)c2C)cc(OC)c1OC`, which Potency is on record?
A: inconclusive: 20.6 µM [inhibitor, single point]

Q: Which “activity change, negative = growth inhibition” value does the source give for `Cc1ccc2oc(Nc3nc(C)c(C)c(C)n3)nc2c1` here?
A: inactive: -24%

Q: For `Cc1cc(C(=O)COC(=O)c2ccccc2NCCO)c(C)n1CC1CCCO1` (stereo not given), which Potency is on record?
A: inconclusive: 23.1 µM [inhibitor, single point]

Q: For `O=C1NCC(=O)N2CCC[C@@H]12`, which “activity change, negative = growth inhibition” value is on record?
A: inactive: 19.7%

Q: With `CCc1noc(C)c1C(=O)NNC(=O)COc1ccc(C)c(C)c1` as the molecule, how does the “activity change, negative = growth inhibition” value read?
A: inactive: 2.12%

Q: For `CCc1nc2c(OCc3cc(Cl)cc(Cl)c3)cccn2c1N(C)C(=O)c1cccc(OC)c1`, which Potency is on record?
A: inconclusive: 29.1 µM [inhibitor, single point]

Q: Which Potency does the source give for `CN(C)CCNC(=O)C1CCN(Cc2cc3ccccc3n2Cc2ccccc2)CC1` here?
A: active: 20.6 µM

Q: Which Potency does the source give for `CCOc1ccc(S(=O)(=O)c2c(C(=O)c3ccc(CC)cc3)cnc3ccc(C)cc23)cc1` here?
A: inconclusive: 20.6 µM [inhibitor, single point]

Q: Which Potency does the source give for `NNC(=O)c1oc2nc(-c3ccc(Cl)cc3)cc(-c3ccccc3)c2c1N` here?
A: inconclusive: 18.4 µM [inhibitor, single point]

Q: Which Potency does the source give for `O=C(c1ccc(N2CCCC2=O)cc1)N1CCN(c2ccc(Cl)cc2)CC1` here?
A: inconclusive: 23.1 µM [inhibitor, single point]

Q: With `COc1cccc(Nc2nc3ccccc3n3cnnc23)c1` as the molecule, how does the Potency read?
A: inconclusive: 29.1 µM [inhibitor, single point]

Q: With `CCCN(CCC)CCCNC(=O)c1cc2c(-c3ccc(OC)c(OC)c3)nn(C)c2s1` as the molecule, how does the Potency read?
A: active: 14.6 µM

Q: Which Potency does the source give for `COC(=O)CC1C(C)(C)C(OC(C)=O)C2[C@H](OC(C)=O)[C@]34O[C@]2(O)[C@]1(C)C3CC[C@]1(C)C4=CC(=O)OC1c1ccoc1` (stereo not given in full) here?
A: inconclusive: 20.6 µM [inhibitor, single point]

Q: With `CCC(C)[C@H](NS(=O)(=O)c1ccc(C)cc1)C(=O)N1CCC(C(=O)N[C@@H](Cc2ccccc2)C(=O)O)CC1` (stereo not given in full) as the molecule, how does the Potency read?
A: inconclusive: 29.1 µM [inhibitor, single point]

Q: Which “activity change, negative = growth inhibition” value does the source give for `CCOC(=O)C1CCN(C(=O)COc2cccc(C)c2)CC1` here?
A: inactive: 4.26%

Q: For `CC1CCN(C(=O)CNC(=O)CNC(=O)Cc2ccccc2)CC1`, which “activity change, negative = growth inhibition” value is on record?
A: inactive: -10%

Q: With `Cc1ccc(-n2nc(C)c3c(C)c(CCC(=O)NCc4ccccc4)c(C)nc32)cc1` as the molecule, how does the Potency read?
A: inconclusive: 29.1 µM [inhibitor, single point]

Q: With `O=C(O)c1cccc(N/N=C(\N=Nc2ccccc2)c2ccccc2)c1` as the molecule, how does the activity change, negative = growth inhibition read?
A: inconclusive: -34.5% [inhibitor]

Q: With `Cc1ccccc1C(=O)N1CCN(S(=O)(=O)c2ccccc2)CC1` as the molecule, how does the “activity change, negative = growth inhibition” value read?
A: inactive: 2.81%

Q: For `O=C(/C=C/c1ccc(Br)cc1)NC(=S)Nc1ccc(S(=O)(=O)Nc2nccs2)cc1`, which Potency is on record?
A: inconclusive: 18.4 µM [inhibitor, single point]

Q: With `CCCCSC1(SCCCC)N=C(N)C2(C#N)C(c3ccccc3)NC(C)=C(C)C12C#N` (stereo not given) as the molecule, how does the Potency read?
A: inconclusive: 29.1 µM [inhibitor, single point]

Q: Which “activity change, negative = growth inhibition” value does the source give for `COc1cccc(C2C(C#N)=C(N)N(N(C)C)C3=C2C(=O)CCC3)c1OC` (stereo not given) here?
A: inactive: -12.7%

Q: Which Potency does the source give for `Cc1cccc(C)c1N1C(=O)CC(Sc2ccccc2N)C1=O` (stereo not given) here?
A: inconclusive: 29.1 µM [inhibitor, single point]

Q: For `COC(=O)[C@@H]1Cc2c([nH]c3ccccc23)C(C)N1C(=O)c1ccccc1` (stereo not given in full), which Potency is on record?
A: inconclusive: 20.6 µM [inhibitor, single point]

Q: Which Potency does the source give for `C[C@@H]1CN([C@H](C)CO)S(=O)(=O)c2ccc(Br)cc2O[C@H]1CN(C)C(=O)Nc1cccc(F)c1` here?
A: inconclusive: 29.1 µM [inhibitor, single point]

Q: For `COc1ccc(C2C(=O)N(C3CCCCCC3)CC(=O)N2Cc2ccc(C)cc2)cc1` (stereo not given), which Potency is on record?
A: active: 23.1 µM

Q: With `O=C1CC(c2nc(-c3ccc(Cl)cc3)no2)CN1c1ccc2c(c1)OCCO2` (stereo not given) as the molecule, how does the “activity change, negative = growth inhibition” value read?
A: inactive: -27.8%

Q: For `CCOC(=O)CC(=O)CSc1nc2c(c(C)c1C#N)CCC2`, which Potency is on record?
A: active: 14.6 µM

Q: For `CC(C)c1ccc(OC(=O)c2cccc(S(=O)(=O)N3CCN(C)CC3)c2)cc1`, which Potency is on record?
A: inconclusive: 18.4 µM [inhibitor, partial curve]

Q: Which Potency does the source give for `Cc1ccc([N+](=O)[O-])c(OCCN2CCC(Cc3ccccc3)CC2)c1` here?
A: inconclusive: 25.9 µM [inhibitor, single point]

Q: For `Cc1cc(C)c(C)c(S(=O)(=O)N2CCN(C(=O)CCc3nc4ccccc4c(=O)[nH]3)CC2)c1C`, which Potency is on record?
A: inconclusive: 11.6 µM [inhibitor, partial curve]

Q: Which Potency does the source give for `C/C(=N\NC(=O)c1cc(-c2cccc([N+](=O)[O-])c2)n[nH]1)c1ccccc1O` here?
A: inconclusive: 29.1 µM [inhibitor, single point]

Q: Which “activity change, negative = growth inhibition” value does the source give for `O=C(COC(=O)Cn1[nH]c(=O)c2ccccc2c1=O)Nc1c(Cl)cccc1C(F)(F)F` here?
A: inactive: -6.62%

Q: With `CCc1cccc(C)c1NC(=O)CCOc1ccccc1` as the molecule, how does the “activity change, negative = growth inhibition” value read?
A: inactive: 5.32%

Q: With `CC(C)CN(C1CCS(=O)(=O)C1)S(=O)(=O)c1ccc(C(C)C)cc1` (stereo not given) as the molecule, how does the activity change, negative = growth inhibition read?
A: inconclusive: -31.5% [inhibitor]

Q: For `Cc1ccc(S(=O)(=O)n2nc(-c3ccccc3)nc2NCc2ccc(Cl)cc2)cc1`, which Potency is on record?
A: inconclusive: 29.1 µM [inhibitor, single point]

Q: Which Potency does the source give for `O=C(CNc1cccc(S(=O)(=O)N2CCOCC2)c1)Nc1ccc(C(F)(F)F)cc1` here?
A: inconclusive: 29.1 µM [inhibitor, single point]

Q: With `COc1cccc(CNC(=O)CC2Sc3ccccc3NC2=O)c1` (stereo not given) as the molecule, how does the “activity change, negative = growth inhibition” value read?
A: inactive: 7.26%

Q: Which Potency does the source give for `CC(C)Cn1c(-c2ccccc2)nc(=S)c2c1CCCC2` here?
A: inconclusive: 23.1 µM [inhibitor, single point]

Q: For `COCCNC(=O)C1(C)CCN(Cc2cccc(Oc3ccccc3)c2)C1` (stereo not given), which Potency is on record?
A: inconclusive: 25.9 µM [inhibitor, single point]

Q: Which Potency does the source give for `CC1Cc2ccccc2N1C(=O)c1ccc(N2CCCC2)c([N+](=O)[O-])c1` (stereo not given) here?
A: inconclusive: 29.1 µM [inhibitor, single point]

Q: For `CN(C(=O)CSc1nnc(-c2ccc(F)cc2)n1C)C1CCS(=O)(=O)C1` (stereo not given), which “activity change, negative = growth inhibition” value is on record?
A: inactive: 9.85%

Q: For `COC(=O)c1cc(=O)n(-c2ccccc2)c(=Nc2ccccc2)s1`, which Potency is on record?
A: inconclusive: 18.4 µM [inhibitor, single point]

Q: For `Cc1ccc(C(=O)OC(C)C(=O)NCc2ccc3c(c2)OCO3)cc1S(=O)(=O)N1CCOCC1` (stereo not given), which Potency is on record?
A: inconclusive: 20.6 µM [inhibitor, single point]

Q: For `N#CCc1ccc(NC(=O)c2cc(S(=O)(=O)N3CCOCC3)ccc2Cl)cc1`, which Potency is on record?
A: active: 16.4 µM

Q: Which activity change, negative = growth inhibition does the source give for `COC(=O)c1ccc(NC(=O)c2ccc(CN3CCOCC3)cc2)cc1` here?
A: inconclusive: -34.2% [inhibitor]

Q: Which “activity change, negative = growth inhibition” value does the source give for `O=C(COc1ccc(Cl)cc1)OCC(=O)c1ccc[nH]1` here?
A: inactive: -5.12%

Q: For `CCCN1CCC(=O)N([C@H](COc2ccccc2)c2ccccc2)CC1`, which Potency is on record?
A: inconclusive: 35.5 µM [inhibitor, single point] and inconclusive: 20.6 µM [inhibitor, single point]

Q: With `CSc1ccc(CCNC(=O)CCn2c(=O)c3cccn3c3ccc(F)cc32)cc1` as the molecule, how does the Potency read?
A: inconclusive: 25.9 µM [inhibitor, single point]

Q: With `CN1CCN(c2ccccc2NC(=O)c2cccs2)CC1` as the molecule, how does the “activity change, negative = growth inhibition” value read?
A: inactive: -10.4%

Q: Which “activity change, negative = growth inhibition” value does the source give for `C[C@]1(Cn2ccnn2)[C@H](C(=O)O)N2C(=O)C[C@H]2S1(=O)=O` here?
A: inactive: 6.83%

Q: For `COc1cc(OC)cc(C(=O)Nc2cc3c(cc2N2CCCC2)n(C)c(=O)c(=O)n3C)c1`, which Potency is on record?
A: inconclusive: 29.1 µM [inhibitor, single point]

Q: For `CC(C)c1ccc(NC(=O)C(=O)C2C(=O)Nc3ccccc32)cc1` (stereo not given), which Potency is on record?
A: active: 20.6 µM

Q: For `O=C(NCCCN1CCOCC1)c1ccc2nc(Cc3cccc(Cl)c3)oc2c1`, which “activity change, negative = growth inhibition” value is on record?
A: inactive: -20.7%

Q: For `CC(C)[C@@H]1Cc2[nH]c(=O)[nH]c(=O)c2[C@H](c2ccc(F)cc2)O1`, which “activity change, negative = growth inhibition” value is on record?
A: inactive: -6.18%

Q: For `CC(C)n1cnc2c(Nc3ccc(F)c(Cl)c3)nc(NCCO)nc21`, which Potency is on record?
A: inconclusive: 29.1 µM [inhibitor, single point]

Q: Which Potency does the source give for `Cc1noc(C)c1COc1ccc(C(=O)N2CCC(C)CC2)cc1` here?
A: inconclusive: 20.6 µM [inhibitor, single point]

Q: Which Potency does the source give for `CN(C)CCCN(C(=O)c1cc2cc([N+](=O)[O-])ccc2s1)c1nc2cc3c(cc2s1)OCCO3` here?
A: active: 1.3 µM

Q: For `COC(=O)c1cc(Br)ccc1NC(=O)CSCc1c(C)noc1C`, which Potency is on record?
A: inconclusive: 29.1 µM [inhibitor, single point]

Q: For `COc1ccc(N2CSC3=C(C#N)C(c4cc(OC)c(OC)cc4OC)CC(=O)N3C2)c(OC)c1` (stereo not given), which Potency is on record?
A: inconclusive: 20.6 µM [inhibitor, single point]

Q: With `Cc1cc(NC(=O)Cn2ccc([N+](=O)[O-])n2)no1` as the molecule, how does the “activity change, negative = growth inhibition” value read?
A: inactive: 0.987%

Q: For `O=C(c1cccc(N2C(=O)c3ccccc3C2=O)c1)N1CCCC(C(F)(F)F)C1` (stereo not given), which “activity change, negative = growth inhibition” value is on record?
A: inactive: 0.6%

Q: With `CC(CN(C)C)C(C)(O)Cc1ccc(Cl)cc1` (stereo not given) as the molecule, how does the “activity change, negative = growth inhibition” value read?
A: inactive: -24.8%

Q: For `CNCc1ccccc1Sc1cc(O)ccc1O`, which Potency is on record?
A: active: 1.84 µM

Q: For `CN(C(=O)c1ccc(NC(=O)Cc2ccc(NC(=O)C3CCN(C(=O)c4ccccc4)CC3)cc2)cc1)C1CC1`, which Potency is on record?
A: inconclusive: 11.6 µM [inhibitor, partial curve]

Q: With `Cc1cccc2c(C(=O)N3CCCCC3)cc(-c3ccccc3)nc12` as the molecule, how does the Potency read?
A: inconclusive: 32.6 µM [inhibitor, single point]

Q: Which “activity change, negative = growth inhibition” value does the source give for `Cc1cc(F)ccc1-c1cc(C(=O)NC(C)C)[nH]n1` here?
A: inactive: -23%

Q: With `OC(Cc1cccnc1)(c1ccccc1)c1ccccc1` as the molecule, how does the Potency read?
A: inconclusive: 29.1 µM [inhibitor, single point]

Q: Which Potency does the source give for `O=C(Nc1cccc(S(=O)(=O)N2CCCCC2)c1)c1ccc2ncsc2c1` here?
A: inconclusive: 18.4 µM [inhibitor, single point]

Q: Which activity change, negative = growth inhibition does the source give for `CCCCCCCCCCCCCC(=O)O[C@H](CC(=O)O)C[N+](C)(C)C` here?
A: inconclusive: -33.9% [inhibitor]
